The campaign covered roughly 48,000 compounds. About 120 (0.25%) were called active. Inconclusive results (about 4%) are left out. The call rests on the fitted dose curve; in most records, active means well fitted activation curve with a large enough effect; inconclusive means small, poorly fitted or top-dose-only effect, or another doubt; inactive means no such curve, though single readings can be large or run the other way. Some of the results follow.

The nature of this experiment: Primary qHTS for Identification of Small Molecule Activators of Huntingtin-Antisense Promoter Activity. Further: nearly all actives have a fitted effect of over 55% in size. The settings on record: HEK293 HTT-AS promoter firefly luciferase reporter, 24 h; series mostly up to 57.5 µM; activity change, positive = activation: at the top concentration. In a few lines:
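HEK293 cells carrying firefly luciferase reporters were seeded at 2,500 per well in Opti-MEM and cultured for 24 h. They were then treated with compounds at up to 57.5 uM final for 24 h at 37 degrees C before Dual-Glo luminescence readout.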
Turning to `CCOc1ccccc1NC(=O)CSc1cc(=O)n(CC)c2ccccc12`, the “activity change, positive = activation” value is inactive: -28.4%. For the molecule `CCOc1ccc(-c2cc(C(F)(F)F)c(C#N)c(SCC(=O)Nc3ccccc3)n2)cc1`, the “activity change, positive = activation” value was inactive: -10.3%.

Consider `CC(=O)c1cc(-c2ccccc2)n(CCC(=O)Nc2cc(C)cc(C)c2)c1C`, for which the “activity change, positive = activation” value is inactive: -38.5%. Turning to `C=CCc1ccc(OCc2ccc(C(=O)Nc3ccc(NC(C)=O)cc3)o2)c(OC)c1`, the “activity change, positive = activation” value was inactive: -80.9%. Turning to `COc1cccc(NC(=O)Cn2cc(C(=O)c3ccc(F)cc3)c(=O)c3cc(OC)ccc32)c1`, the “activity change, positive = activation” value was inactive: -17.4%. As to `Cc1cccc(Cn2cnc3c(oc4ccccc43)c2=O)c1`, the “activity change, positive = activation” value was inactive: 1.28%. Regarding `CCc1oc2ccccc2c1C(=O)c1cc(I)c(O)c(I)c1`, the “activity change, positive = activation” value was inactive: -25.5%. On to `COc1ccc(-c2c(C)nn3c(N4CCN(c5ccccc5F)CC4)cc(C)nc23)cc1OC`, for which the “activity change, positive = activation” value is inactive: -14%. As for `Cc1ccc(NS(=O)(=O)c2ccc3[nH]c4c(c3c2)CCCCCC4)cc1`, the figure is inactive: -26%. Under `Cc1cc(C)cc(NC(=O)N2CCC(CN3CCc4ccccc4C3)CC2)c1` stands inactive: -12%. Under `CCC(=O)N1CCc2cc(CNS(=O)(=O)c3ccc(Br)s3)ccc21` stands inactive: -16.5%.

As for `N#Cc1ccc(NC2=NS(=O)(=O)c3ccccc32)cc1`, the “activity change, positive = activation” value is inactive: 25.9%. As for `CCN1CCN(C(c2ccccc2F)c2c(O)cc(C)n(CCOC)c2=O)CC1` (configuration not stated), the figure is inactive: 4.48%. Under `CCCN(CCC)CCNC(=O)c1sc2nc3n(c(=O)c2c1C)CCCCC3` stands inactive: -3.33%; under `COc1ccc(-n2c(C)nc3cc(C(=O)NC4CCCCCC4)ccc32)cc1`, inactive: -20.2%; under `Cc1ccc(C)c(N2C(=O)N(C)c3ccccc3S2(=O)=O)c1`, inactive: -24.7%. Under `COC(=O)c1c(NC(=O)c2nc(SCc3ccccc3C)ncc2Cl)sc2c1CCCC2` stands inactive: 0.532%; under `CC1CCCN(S(=O)(=O)c2ccc(N3CCCCS3(=O)=O)cc2)C1` (configuration not stated), inactive: -11.4%.

For the molecule `O=c1cc(-c2ccc(F)cc2)nc(SCc2nc(-c3cccc(C(F)(F)F)c3)no2)[nH]1`, the “activity change, positive = activation” value is inactive: -2.59%. As for `Cc1c(C(=O)N(Cc2cccc(F)c2)C2CCS(=O)(=O)C2)oc2cc(Br)ccc12` (configuration not stated), the “activity change, positive = activation” value is inactive: -35.4%. Under `COc1ccc(NC(=O)CN2C(=O)C3(SCC(=O)N3c3ccccc3)c3ccccc32)cc1Cl` (configuration not stated) stands inactive: -27.5%. Take `COc1ccc(CNC(=O)c2cccc(N3CCCS3(=O)=O)c2)cc1OC`: the “activity change, positive = activation” value is inactive: -91.5%. Under `Cc1ccc(C(C)C)cc2c(C)ccc1-2` stands inactive: -0.0225%. Consider `CC(C)c1ccc(NC(=O)c2ccc(Cn3nc(N4CCN(c5ccccc5)CC4)ccc3=O)o2)cc1`, for which the “activity change, positive = activation” value was inactive: -41.2%. For the molecule `O=C(Cn1ncn2nc(-c3cccs3)cc2c1=O)NCc1ccccc1Cl`, the “activity change, positive = activation” value was inactive: 0.0399%. Take `CCc1ccc(N2C(=O)CSC23C(=O)N(Cc2cccc(OC)c2)c2ccccc23)cc1` (configuration not stated): the “activity change, positive = activation” value is inactive: -37.4%. Under `CCn1c(=NC(=O)c2ccc(S(=O)(=O)N3CCCC3)cc2)sc2cc(Br)ccc21` stands inactive: -15%. Under `CC(C)=CCC/C(C)=C/CC/C(C)=C/CCC(=O)OC/C=C(\C)CCC=C(C)C` stands inactive: 4.18%. Under `CCOC(=O)c1c(C)c(-c2ccccc2)n(CC(=O)NC2CCCCCC2)c1C` stands inactive: -3.36%. As for `O=C(NCc1ccc(F)cc1)c1ccc(Cn2c(SCc3ccc(F)cc3)nc3cccnc32)cc1`, the “activity change, positive = activation” value was inactive: -8.47%. `CC(C)Cn1c(=O)c2ccccc2n2c(CCC(=O)NCc3ccc(Cl)cc3)nnc12`: the “activity change, positive = activation” value is inactive: -11%.

With `CCN(CCCNC(=O)c1cc2cc3ccc(OC)cc3nc2s1)c1cccc(C)c1`, the “activity change, positive = activation” value is inactive: 1.97%. On to `CC(C)(C)NC(=O)[C@H]1CN(Cc2cccnc2)CCN1C[C@@H](O)C[C@@H](Cc1ccccc1)C(=O)N[C@H]1c2ccccc2C[C@H]1O`, for which the “activity change, positive = activation” value is inactive: -20.4%. On to `CCCN1C(=O)c2[nH]nc(-c3cccc(OC)c3)c2C1c1ccccn1` (configuration not stated), for which the “activity change, positive = activation” value is inactive: -20.8%. As for `Cn1nnc2c(NCc3ccccc3)ncnc21`, the figure is inactive: 14.1%; as for `Cc1cc(C)cc(-n2c(C)nc3cc(C(=O)NCc4ccc(F)cc4)ccc32)c1`, inactive: -27.8%. `CCC(C)NC(=O)c1ccc2c(c1)N(Cc1ccccc1F)C(=O)c1ccccc1S2=O` (configuration not stated): the “activity change, positive = activation” value is inactive: -13.9%. Consider `Cc1cc(C)cc(NC(=O)c2cnn(-c3ccc(C)c(C)c3)c2C2CCNCC2)c1`, for which the “activity change, positive = activation” value is inactive: -18.5%. Take `O=C(CCC(=O)N1CCSc2ccccc21)NCc1ccccc1Cl`: the “activity change, positive = activation” value is inactive: -13.2%. Take `CCOc1ccc(CCNC(=O)c2cn(-c3cccc(OC)c3)c(=O)c3ccccc23)cc1`: the “activity change, positive = activation” value is inactive: -11.5%. With `Cc1cccc(Nc2cc(Cl)nc(SCC(=O)O)n2)c1C`, the “activity change, positive = activation” value is inactive: -7.32%. Under `CCCCn1c(=N)c(C(=O)NC2CCCCC2)cc2c(=O)n3cccc(C)c3nc21` stands inactive: 12.4% [at 11.5 µM, percent change from vehicle, -100% = no light]; under `Cn1c(=O)oc2cc(S(=O)(=O)NCCC(=O)NCc3ccc(F)cc3)ccc21`, inactive: -4.04%; under `CCOc1ccccc1CNC(=O)c1cnc2sc(N3CCOCC3)nn2c1=O`, inactive: -9.66%. In the case of `CCN(C(=O)Cn1c(=O)nc(-c2ccccc2)c2cc(Cl)ccc21)c1cccc(C)c1`, the “activity change, positive = activation” value was inactive: -0.728%. As for `CCc1cccc(NC(=O)C2CCC(CNS(=O)(=O)c3ccc4c(c3)CCCC(=O)N4)CC2)c1` (configuration not stated), the figure is inactive: -21.9%; as for `CCOc1ccc(CCNC(=O)Cn2ncc3c([nH]c4ccccc43)c2=O)cc1OCC`, inactive: -9.7%; as for `O=C(N/N=C/c1ccc([N+](=O)[O-])o1)c1ccc(O)cc1`, inactive: -44.3%.

Consider `OCCN1CCN(C(c2ccc(Cl)cc2Cl)c2sc3nc(-c4ccco4)nn3c2O)CC1` (configuration not stated), for which the “activity change, positive = activation” value was inactive: -4.17%. As for `CCOc1ccc(-n2c(SCC(=O)Nc3ccc4c(c3)OCCO4)nc3c([nH]c4ccccc43)c2=O)cc1`, the “activity change, positive = activation” value is inactive: -14.4%. As for `Clc1ccccc1-c1nnc(-c2ccccc2CNc2ccc(Br)cc2)o1`, the figure is inactive: 18.2%. Under `CC(C)c1ccc2c(c1)NC(c1ccncc1)=NC(c1cccs1)=N2` stands inactive: 18.4%; under `COc1ccc(-c2cc(OC(=O)c3ccccc3)c3c(C)oc(C)c3c(=O)c2)cc1OC`, inactive: -6.53%; under `CCc1cccc(NC(=O)C(NS(=O)(=O)c2ccc3nc(C)sc3c2)C(C)C)c1` (configuration not stated), inactive: -9.68%. Consider `CCOc1ccccc1NC(=O)CCc1c(C)nc2c(c(C)nn2-c2ccccc2)c1C`, for which the “activity change, positive = activation” value was inactive: 3.4%. As for `C#CCSc1nc(-c2ccccc2)c2cc(Cl)ccc2n1`, the figure is inactive: -17.2%.

Regarding `Cc1ccc(Cl)cc1N1CCN(C(=O)c2ccc3c(c2)N(Cc2ccccc2F)C(=O)c2ccccc2S3=O)CC1` (configuration not stated), the “activity change, positive = activation” value is inactive: -12.8%. As for `O=C(CCS(=O)(=O)c1cc(Br)cc2c1N(C(=O)C1CC1)CC2)Nc1ccc(F)cc1`, the “activity change, positive = activation” value is inactive: -5.32%.

Regarding `Cc1ccc(CNC(=O)c2sc3nc(-c4ccccc4)cn3c2C)cc1`, the “activity change, positive = activation” value was inactive: -8.32%. As for `Cc1cccc(Cn2cnc3c(cnn3-c3ccc(Cl)cc3)c2=O)c1`, the figure is inactive: -0.682%; as for `Cc1cc(C)c2oc(C(=O)Nc3ccc(S(=O)(=O)N4CCC(C)CC4)cc3)cc(=O)c2c1`, inactive: -8.73%; as for `Cc1ccc(CN2CCN(C3CCN(C(=O)Nc4ccccc4C(F)(F)F)CC3)C(=O)C2=O)cc1`, inactive: -13.9%.

Regarding `Cc1cc(C)n2c(Nc3ccccc3)c(-c3ccccc3)nc2n1`, the “activity change, positive = activation” value was inactive: -8.32%. As for `CCn1c(=O)cc(OCC(=O)N2CCN(c3ccccc3OC)CC2)c2ccccc21`, the “activity change, positive = activation” value was inactive: -3.94%. As for `Cc1cccc(Cn2nnc(C(=O)Nc3cc(C)ccc3C)c2N)c1`, the figure is inactive: -27.2%. As for `Cc1cccc(C)c1NC(=O)CCCN1C(=O)CCn2nc(-c3cn(C)c4ccccc34)cc21`, the “activity change, positive = activation” value is inactive: 3.68%. As for `COc1cccc(NC(=O)C2CCN(c3nc4ccccc4nc3C(F)(F)F)CC2)c1`, the “activity change, positive = activation” value is inactive: -15.2%. As for `Cc1ccc(CNC(=O)CCCn2c(=O)c3ccccc3n(Cc3ccccc3C)c2=O)cc1`, the figure is inactive: -29.5%. For `CC(NC(=O)c1ccc2c(c1)N(Cc1ccc(Cl)cc1)C(=O)c1ccccc1S2=O)c1ccccc1` (configuration not stated), the “activity change, positive = activation” value was inactive: -30.2%. As for `COc1ccc(Cl)cc1NC(=O)Cn1cnc2c1c(=O)n(C)c(=O)n2C`, the figure is inactive: -0.84%; as for `CC(C)NC(=O)C1CCCN(c2ncnc3c2nc2n3CCCCC2)C1` (configuration not stated), inactive: -21.3%. Under `CC(CNS(=O)(=O)c1ccc2c(c1)CC(=O)N2C)c1ccccc1` (configuration not stated) stands inactive: -7.86%; under `Cc1ccc(C(C)C)c(OCCCn2c(=O)oc3ccccc32)c1`, inactive: -18%; under `CCOC(=O)c1c(C)oc2nc(C)nc(NCCCN3CCN(c4ccc(F)cc4)CC3)c12`, inactive: -15.1%. Consider `COc1ccc(C(=O)NCCn2cc(SCc3cc(C)ccc3C)c3ccccc32)cc1`, for which the “activity change, positive = activation” value was inactive: -62.2%. On to `COc1ccccc1NC(=O)c1ccc2oc(=O)c(S(=O)(=O)c3ccccc3)cc2c1`, for which the “activity change, positive = activation” value was inactive: 14%. On to `Cc1cc(N2CCN(c3cccc(C)c3C)CC2)n2nc(C)c(-c3ccc(Cl)cc3)c2n1`, for which the “activity change, positive = activation” value was inactive: -19.1%. In the case of `CCOc1ccc(C2c3c(oc4ccccc4c3=O)C(=O)N2c2nnc(C)s2)cc1OC` (configuration not stated), the activity change, positive = activation is inactive: -3.14% [at 11.5 µM, percent change from vehicle, -100% = no light]. As for `COc1ccc(-n2c(-c3ccco3)nc3c(cnn3-c3ccccc3C)c2=O)cc1`, the figure is inactive: -13.5%; as for `Cc1ccccc1CNC(=O)c1cc2cc(S(=O)(=O)N3CCCCC3)ccc2n1C`, inactive: -31.3%; as for `CO[C@H]1C=CO[C@@]2(C)Oc3c(C)c(O)c4c(O)c(c5c(c4c3C2=O)NC2(CCN(CC(C)C)CC2)N=5)=NC(=O)C(C)=CC=C[C@H](C)[C@H](O)[C@@H](C)[C@@H](O)[C@@H](C)[C@H](OC(C)=O)[C@H]1C`, inactive: -5.09%.

For the molecule `CCOC(=O)c1cc(NC(=O)c2ccc(Cl)cc2)c(=O)n2c1oc1ccccc12`, the “activity change, positive = activation” value was inactive: -9.83%.

Regarding `COc1ccc(Nc2c3c(nc4ccc(NC(=O)/C=C/c5cccc(OC)c5OC)cc24)CCCC3)cc1OC`, the “activity change, positive = activation” value was inactive: -95%. Take `NC(=O)c1ncn([C@@H]2O[C@H](CO)[C@@H](O)[C@H]2O)c1O`: the “activity change, positive = activation” value was inactive: -3.59%.

Take `O=C(Nc1ccc(Br)cc1)c1cccc(C(=O)Nc2ccc(Br)cc2)c1`: the “activity change, positive = activation” value was inactive: -23.4%.

As for `O=S(=O)(c1ccc(Cl)cc1)c1nc(-c2ccccc2)oc1N1CCN(c2ccccc2)CC1`, the “activity change, positive = activation” value is inactive: -6.45%.

As for `CCOc1ccc(C2CC(=O)c3c([nH]c(C(=O)OC4CCC(C)CC4)c3C)C2)cc1` (configuration not stated), the “activity change, positive = activation” value is inactive: -1.46%. Under `COc1ccccc1N1CCN(C(=O)CN2C(=O)COc3ccc(S(=O)(=O)N4CCCC4)cc32)CC1` stands inactive: -1.4%.

With `CCc1nc(SCc2cc(=O)c3cc(C)ccc3[nH]2)n[nH]1`, the “activity change, positive = activation” value was inactive: -15.2%.

Turning to `CCc1cccc(NC(=O)CSc2nc3ccsc3c(=O)n2CC)c1`, the “activity change, positive = activation” value is inactive: -38.5%.

On to `Cc1ccc(CNC(=O)Cn2c(=O)n(Cc3ccccc3)c(=O)c3sc4ccccc4c32)cc1`, for which the “activity change, positive = activation” value was inactive: -15.2%. As for `CCCN1CCN(c2cc3c(cc2F)c(=O)c(S(=O)(=O)c2ccc(Cl)cc2)cn3C)CC1`, the figure is inactive: -12.1%.
